Structures are written as SMILES. Hit rate of the full screen: of about 150,000 compounds, about 540 (0.36%) showed an effect of 50% or more. This is one part of the list.

The subject of the assay is Plasmodium falciparum. In words: Primary screen in NF54 nanoGlo assay, in single point, at 2uM, 72h; a lower Z score goes with more inhibition. The settings on record: timepoint 72 hour. In kind it is functional, Erythrocyte.
The term % Inhibition denotes the drop in the measured response relative to a control, in per cent. Consider `O=C(C1=CCCC1)N(c1cccc(O)c1)S(=O)(=O)c1ccccc1`, for which the “% Inhibition” value is reported as -13% and the Z score came to 1.19.

On to `CC[C@H](NC(=O)c1cnc(O)cn1)c1cc(C)ccn1`, for which the “% Inhibition” value was -2% and the Z score came out at 0.31.

With `NC(=O)Cc1nc([C@H]2CC(=O)N(C3CCCC3)C2)n(CC(F)(F)F)n1`, the “% Inhibition” value is reported as -14% and the Z score is on record as 2.04.

For the compound `CC[C@H](NC(=O)Nc1ccc(N2CCCC2)c(C)c1)c1nccs1`, the “% Inhibition” value was -17% and the Z score is 2.69.

Take `O=S(=O)(NC(C1CC1)C1CC1)c1ccc(Br)cc1Cl`: the “% Inhibition” value worked out at 4% and the Z score is on record as -0.86.

In the case of `CCOC(=O)Cc1csc(NC(=O)C(=O)OCC)n1`, the “% Inhibition” value amounted to 7% and the Z score is listed as -0.98.

For the compound `CC[C@H]1C[C@@H](NC(=O)c2ccccc2)C[C@@H](c2ccccc2OCC(N)=O)O1`, the “% Inhibition” value is listed as -18% and the Z score was 2.6.

Take `Cc1nc(CN(C)C(=O)NC(C)(C)CN2CCCCCC2)no1`: the “% Inhibition” value is given as -6% and the Z score amounted to 0.68.

As for `CCOCCC(=O)Nc1nnc(C(C)C)s1`, the “% Inhibition” value is recorded as 4% and the Z score is recorded as -0.71.

With `Cc1ccc2nc3c(cc2c1)CCN3C(=O)COc1ccc(Cl)cc1`, the “% Inhibition” value is given as -2% and the Z score is given as 0.22.

With `Cc1nc(CNC[C@H](C)c2c(C)noc2C)sc1C`, the “% Inhibition” value stood at 6% and the Z score is -0.63.

On to `CC(CN1CCN(C)CC1)NC(=O)NC1CC1C` (stereo unspecified), for which the “% Inhibition” value amounted to 1% and the Z score is recorded as -0.14.

Regarding `COc1ccc(C(C)NC(C)c2nnnn2C)cc1` (stereo unspecified), the “% Inhibition” value is -3% and the Z score was found to be 0.3.

As for `CON(C)C(=O)CCN1CCCN(Cc2ccccc2)CCOCC1`, the “% Inhibition” value was -3% and the Z score came to 0.51.

For the compound `COc1ccc(-c2ncc(F)c(N(C)C)n2)cc1C`, the “% Inhibition” value amounted to 1% and the Z score is listed as -0.19.

For the compound `CN(C)c1ccccc1NC(=O)c1ccco1`, the “% Inhibition” value is on record as -11% and the Z score came to 1.56.

In the case of `CC[C@@H]1NC(=O)N(Cc2cccnc2C(F)(F)F)C1=O`, the “% Inhibition” value is given as -15% and the Z score is 2.28.

Consider `Cc1c(F)ccc(Cl)c1NC(=O)[C@H]1OCC[C@H]1C`, for which the “% Inhibition” value was -23% and the Z score came out at 2.37.

As for `O=C1CCC(Cn2cc(Cl)c(=O)[nH]c2=O)CC1`, the “% Inhibition” value is given as 0% and the Z score amounted to 0.05.

As to `CCN(Cc1ccc(OC(F)F)cc1)C[C@H]1CCCCO1`, the “% Inhibition” value is listed as -14% and the Z score worked out at 1.76.

`COC(=O)c1ccccc1NC(=O)CCc1nc(CS(=O)(=O)c2ccc(C)cc2)no1`: the “% Inhibition” value is reported as -2% and the Z score was determined as 0.3.

On to `CC(C)C(=O)N1CCCN(c2nc(CN3CCN(c4ccccc4F)CC3)cc(=O)[nH]2)CC1`, for which the “% Inhibition” value stood at 1% and the Z score is -0.19.

Regarding `Cc1cccc(NC(=O)N2CC3C=CC2C3)c1` (stereo unspecified), the “% Inhibition” value is reported as -5% and the Z score stood at 0.62.

`Cc1occc1C(=O)NCc1nnc2n1CCC2`: the “% Inhibition” value is recorded as -3% and the Z score was 0.3.

In the case of `COc1ccc(C(=O)N/C(=C\c2cn(S(=O)(=O)N(C)C)c3ccccc23)C(=O)NCCN2CCOCC2)cc1OC`, the “% Inhibition” value turned out to be 4% and the Z score was -0.7.

As to `Cc1nc(CC(N)=NOCc2cc(Cl)c3c(c2)OCCO3)cs1`, the “% Inhibition” value is recorded as 15% and the Z score is -1.51.

On to `COc1ncc(-c2c(C)c(-c3cnn(C)c3)nc(N)c2C#N)cn1`, for which the “% Inhibition” value was -2% and the Z score was 0.24.

As for `O=C(Cc1cn2c(n1)CCCC2)N[C@H]1CCCc2cnccc21`, the “% Inhibition” value is reported as -12% and the Z score was found to be 1.23.

Regarding `CN(C)c1cccc(COC(=O)COc2ccccc2F)c1`, the “% Inhibition” value was 10% and the Z score is -1.4.

For `CN(C)S(=O)(=O)N(CCN1CCCC1)[C@H]1CCN(C(=O)c2cccs2)C1`, the “% Inhibition” value is 2% and the Z score was -0.34.

For `Fc1ccc2[nH]c(COCc3nc([C@H]4CCOC4)no3)nc2c1`, the “% Inhibition” value is recorded as 1% and the Z score was -0.24.

For `CCCC[C@H](C)C(=O)Nc1nc(C(C)C)nn1C`, the “% Inhibition” value is on record as -17% and the Z score came to 1.69.

On to `Cc1cccc(OCC(=O)Nc2cc(F)c3nc(N4CCOCC4)ccc3c2)c1`, for which the “% Inhibition” value was -8% and the Z score came to 1.08.

As for `Nc1nc(NC2CC2)cc(-c2ccncc2)n1`, the “% Inhibition” value is -2% and the Z score is reported as 0.32.

Turning to `CCOC(=O)c1nnsc1NC(=O)[C@H](C#N)C(=O)OCC`, the “% Inhibition” value is 0% and the Z score is on record as -0.03.

Turning to `CC(C)(C(=O)N1CCc2cnccc21)c1cccs1`, the “% Inhibition” value is -9% and the Z score worked out at 0.82.

With `CCCC[C@H]1CN(c2cccc(-c3ccccc3)c2)C(=O)CN1C(=O)CO`, the “% Inhibition” value came out at 2% and the Z score is on record as -0.24.

In the case of `COc1ccccc1[C@H](CC(C)C)NC(=O)N(C)Cc1nnc[nH]1`, the “% Inhibition” value turned out to be 5% and the Z score is on record as -0.93.

For the compound `Cn1cc(CC(=O)NCC2(N3CCOC(C)(C)C3)CCCCC2)cn1`, the “% Inhibition” value is -6% and the Z score was determined as 0.92.

For the compound `c1ccc(Cn2c(Cc3cccc4ccccc34)nc3ccccc32)cc1`, the “% Inhibition” value was found to be 26% and the Z score is -3.35.

As to `Cc1cc(C)n(-c2ccc([C@H](C)NC(=O)c3nc(=O)[nH][nH]3)cc2)n1`, the “% Inhibition” value stood at 1% and the Z score is given as -0.09.

With `CCc1ccc(C(=O)NC(C)(C)c2cn([C@H]3CN[C@H](C(=O)NC)C3)nn2)cc1`, the “% Inhibition” value is given as -26% and the Z score was 2.51.

Take `O=C(C1CCc2ccccc2C1)N1CCC(C(=O)O)(C(F)(F)F)C1` (stereo unspecified): the “% Inhibition” value turned out to be 1% and the Z score is on record as -0.09.

Values taken from ChEMBL document CHEMBL4888484, “Replenishing the malaria drug discovery pipeline: Screening and hit evaluation of the MMV Hit Generation Library 1 (HGL1) against asexual blood stage Plasmodium falciparum ,using a nano luciferase reporter read-out” (2022).
